# In PubChem BioAssay AID602310 (National Center for Advancing Translational Sciences (NCATS), 2012):
# Hit rate of the full screen: of about 410,000 compounds, about 310 (0.076%) were called active. This list was built around the results that the source calls inconclusive (neither active nor inactive); the mix of calls is not that of the screen. Calls come from the whole dose curve; as a rule, active = well fitted curve in the direction sought with a large enough effect; inconclusive = small, poorly fitted or top-dose-only effect; inactive = flat fitted curve, though single readings scatter. Potencies of inconclusive entries are doubtful fits and often do not repeat.
# Molecular target: DNA dC->dU-editing enzyme APOBEC-3G (Homo sapiens) (UniProt Q9HC16)
# Assay: qHTS for Inhibitors of Vif-A3G Interactions: qHTS; note: nearly all actives have a fitted effect of over 60% in size
# Conditions: HeLa A3G-eYFP + Vif (tagged APOBEC3G with the HIV-1 protein that degrades it), YFP fluorescence, overnight; series mostly up to 46.1 µM
# In short: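 Read-out is eYFP fluorescence (Ex 488/Em 500-530) from Vif-expressing HeLa A3G-eYFP cells; more signal means A3G escaped Vif-mediated degradation. Cells plated overnight, compound pinned in, incubated overnight at 37 deg C.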
# Potency is the fitted concentration of half-maximal effect; tags give direction and shape of the fitted curve.
# UniProt Q9HC16, sequence (Q9HC16 whole entry, looked up): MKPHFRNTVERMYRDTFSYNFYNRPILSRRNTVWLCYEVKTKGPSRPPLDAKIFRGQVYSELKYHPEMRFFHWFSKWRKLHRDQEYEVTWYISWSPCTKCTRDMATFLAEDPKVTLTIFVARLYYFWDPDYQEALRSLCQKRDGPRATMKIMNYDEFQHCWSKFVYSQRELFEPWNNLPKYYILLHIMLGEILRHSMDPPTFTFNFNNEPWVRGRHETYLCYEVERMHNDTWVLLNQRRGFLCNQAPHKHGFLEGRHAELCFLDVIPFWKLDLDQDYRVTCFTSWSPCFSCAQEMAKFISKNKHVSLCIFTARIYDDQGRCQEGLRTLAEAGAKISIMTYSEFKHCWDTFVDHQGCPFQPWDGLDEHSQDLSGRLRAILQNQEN
row,SMILES,Potency
1,O=C(Cc1c(F)cccc1Cl)Nc1ccon1,inactive
2,O=C(NC1CCCC1)C(c1ccc(F)cc1)N(C(=O)Cc1cccs1)c1ccc2c(c1)OCCO2 (centres undefined),inactive
3,COc1ccc2c(Cl)c(C(=O)N/N=C/c3c(C)[nH]c4ccccc34)sc2c1,"inconclusive: 12.6 µM [inhibitor, single point]"
4,Cn1nnnc1SCc1nc2scc(-c3ccccc3)c2c(=O)[nH]1,inactive
5,COc1cc(/C=N/NC(=O)c2ccccc2Cl)ccc1Oc1ccc([N+](=O)[O-])cn1,"inconclusive: 10 µM [inhibitor, partial curve]"
6,COc1ccc(COc2cc(-c3cccc(OC)c3)nc3ccc(NC(=O)c4ccc(N(C)C)cc4)cc23)cc1,"inconclusive: 0.562 µM [inhibitor, full curve, poor fit]"
7,COc1ccc([C@H]2C[C@H](O)[C@@H](n3cc(C4CC4)nn3)CN2CC2CCCCC2)cc1,inactive
8,COc1ccc(Nc2nc3ccccc3nc2NS(=O)(=O)c2cccs2)c(OC)c1,"inconclusive: 15.8 µM [inhibitor, single point]"
9,COc1ccccc1-n1cc([C@@H]2C[C@H]3CN(c4ccccc4)C(=O)[C@]34CCCN24)cn1,"inconclusive: 25.1 µM [inhibitor, single point]"
10,CCOc1ccc(/C=C2\C(=O)c3ccccc3OC2c2ccccc2)cc1 (centres undefined),inactive
11,Cc1ccc(NC2=C(Cl)C(=O)OC2OC(=O)c2ccccc2)c(C)c1 (centres undefined),inactive
12,O=C(Nc1nc(-c2ccccn2)cs1)c1ccc([N+](=O)[O-])o1,"inconclusive: 31.6 µM [inhibitor, single point]"
13,CCCCCc1cc(=O)oc2c(C(CCN3CCCCC3)c3ccc4c(c3)OCO4)c(OC)cc(OC)c12 (centres undefined),"inconclusive: 35.5 µM [inhibitor, single point]"
14,O=C(CCc1nc2ccccc2c(=O)[nH]1)NCc1cccc(Cl)c1,"inconclusive: 25.1 µM [inhibitor, single point]"
15,CCOC(=O)/C=C/C(=O)Nc1ccccc1-c1ccccc1NC(=O)/C=C/C(=O)OCC,"inconclusive: 15.8 µM [inhibitor, single point]"
16,Cc1nc2nc(-c3ccco3)nn2c(C)c1Cl,"inconclusive: 2.51 µM [inhibitor, full curve]"
17,N=C1/C(=C/c2coc3ccccc3c2=O)C(=O)N=C2SC(c3ccco3)=NN12,inactive
18,O=C1c2ccccc2C(=O)N1c1ccccn1,inactive
19,COC(=O)N/N=C/c1c(C)nn(-c2cccc(Cl)c2)c1Cl,"inconclusive: 8.91 µM [inhibitor, partial curve]"
20,COc1cc(NC(=O)Cn2cc(C(=O)c3ccc(F)cc3)c(=O)c3ccc(C)nc32)cc(OC)c1,"inconclusive: 35.5 µM [inhibitor, single point]"
21,Cc1c(NN=C(C#N)C#N)c(=O)n(-c2ccccc2)n1C,inactive
22,COC(=O)c1ccc(C(=O)OC)c(NC(=S)N2CCN(c3ccc(F)cc3)CC2)c1,"inconclusive: 22.4 µM [inhibitor, single point]"

row,SMILES,Potency
1,N=c1c2c(ncn1CCCO)Oc1c(ccc3ccccc13)C2c1ccccc1 (centres undefined),"inconclusive: 3.55 µM [inhibitor, partial curve, poor fit]"
2,CSCCOC(=O)c1[nH]c2c(c1C)C(=O)CC(c1ccco1)C2 (centres undefined),"inconclusive: 1.78 µM [inhibitor, full curve, poor fit]"
3,CN(C)c1ccc(CNC(=O)Cn2c(=O)oc3cc(S(=O)(=O)N4CCCCCC4)ccc32)cc1,inactive
4,CCOC(=O)c1c(NC(=O)c2ccc(OC)cc2)sc2c1CCCCC2,inactive
5,Cc1ccc(-c2nn(-c3ccccc3)cc2NC(=O)CCl)cc1,"inconclusive: 35.5 µM [inhibitor, single point]"
6,COc1cc(C2C(C#N)=C(N)Oc3cc(N)ccc32)cc(OC)c1OC (centres undefined),"inconclusive: 0.562 µM [inhibitor, full curve, poor fit]"
7,COc1ccccc1OC(C)C(=O)Nc1cccc(-c2nc3ccccc3o2)c1 (centres undefined),"inconclusive: 25.1 µM [inhibitor, single point]"
8,COc1cccc(/C=N/NC(=O)c2ccc(N3CCCC3=O)cc2)c1,"inconclusive: 10 µM [inhibitor, partial curve]"
9,C(=C\c1ccc2ccccc2n1)/c1ccccc1,"inconclusive: 22.4 µM [inhibitor, single point]"
10,CCN(CC)c1ccc(/C=C/C2=C3C=CC=CC3NC=C2)cc1 (centres undefined),"inconclusive: 12.6 µM [inhibitor, partial curve, poor fit]"
11,Cc1csc(NC(=O)c2sc3nc(-c4cccs4)ccc3c2N)n1,"inconclusive: 15.8 µM [inhibitor, partial curve, poor fit]"
12,Cc1cccc(CCN2C(Nc3ccccc3)=NC[C@@H]2CC(C)C)c1,inactive
13,COc1cccc2c1C(=O)C=C(C)C2=O,inactive
14,Cc1ccccc1OCCCN1C(=O)C(=O)c2cccc(C)c21,inactive
15,COc1cc(OC)c(NS(=O)(=O)c2ccc3oc(=O)c4ncn(C)c4c3c2)cc1Cl,"inconclusive: 22.4 µM [inhibitor, single point]"
16,Cc1c(-c2nnc(SCC(=O)Nc3ccccc3F)o2)nnn1-c1ccc(F)cc1,"inconclusive: 10 µM [inhibitor, partial curve, poor fit]"
17,O=C1/C(=C/c2ccncc2)CCC/C1=C\c1ccncc1,"inconclusive: 3.98 µM [inhibitor, single point]"
18,CC(C)Oc1ccc(CNC(=O)C2CCN(c3nc4ccccc4nc3C(F)(F)F)CC2)cc1,"inconclusive: 3.55 µM [inhibitor, full curve, poor fit]"
19,O=C(NCc1cccs1)c1noc2c1CCCC2,"inconclusive: 22.4 µM [inhibitor, single point]"
20,Cc1cc(C)nc(/N=C(\N)Nc2cccc(OCc3ccccc3)c2)n1,"inconclusive: 8.91 µM [inhibitor, partial curve]"
21,COc1ccc2nc(SCC(=O)NC(C)C)[nH]c2c1,inactive
22,C=CS(=O)(=O)c1ccc(Oc2ccc(S(=O)(=O)C=C)cc2)cc1,"inconclusive: 3.16 µM [inhibitor, partial curve, poor fit]"
